IC50 is the fitted dose that halves viability relative to control wells, and lower means more sensitive; a limit (>, <) means that the fit lies beyond the doses tested. AUC is the area under the same curve over the 256-fold range up to the top dose, as a fraction; it is 1 without any effect and falls as sensitivity rises. For part of these data: Where the top dose is marked as inferred, it was calculated from the reported fits.
Tests used:
Experiment in all cases: Viability of human cancer cell lines after 72 h of drug (GDSC screen)
Bexarotene = compound: C=C(c1ccc(C(=O)O)cc1)c1cc2c(cc1C)C(C)(C)CCC2(C)C [Bexarotene]; conditions: top dose 8 µM
Protocol: (§1)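 Human cancer cell lines in 384-well plates, medium with 10% serum, drug for 72 h over a 256-fold dose range (nine 2-fold or five 4-fold steps up to the top dose). Adherent lines were fixed and stained with the nucleic acid dye Syto60, suspension lines read with resazurin; signal relative to control wells, capped at 0 and 100%. One two-parameter sigmoid per drug and line, fitted in a mixed model over all curves with the slope shared within a line.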

NPK76-II-72-1 = compound: COc1cc(C(=O)NC2CCN(C)CC2)ccc1Nc1ncc2c(n1)N(C1CCCC1)C(C)CC(=O)N2C [NPK76-II-72-1]; conditions: top dose 10.24 µM; top dose inferred
Protocol: as §1

Etoposide = compound: COc1cc([C@@H]2c3cc4c(cc3[C@@H](O[C@@H]3O[C@@H]5CO[C@@H](C)O[C@H]5[C@H](O)[C@H]3O)[C@H]3COC(=O)[C@H]23)OCO4)cc(OC)c1O [Etoposide]; conditions: top dose 16 µM
Protocol: as §1

YK 4-279 = compound: COc1ccc(C(=O)CC2(O)C(=O)Nc3c(Cl)ccc(Cl)c32)cc1 [YK 4-279]; conditions: top dose 10 µM
Protocol: as §1

BMS-345541 = compound: Cc1ccc2nc(NCCN)c3ncc(C)n3c2c1 [BMS-345541]; conditions: top dose 16 µM
Protocol: as §1

AZD7762 = compound: NC(=O)Nc1cc(-c2cccc(F)c2)sc1C(=O)N[C@H]1CCCNC1 [AZD7762]; conditions: top dose 2 µM
Protocol: as §1

GSK-650394 = compound: O=C(O)c1ccc(-c2c[nH]c3ncc(-c4ccccc4)cc23)cc1C1CCCC1 [GSK-650394]; conditions: top dose 16 µM; top dose inferred
Protocol: as §1

XAV 939 = compound: Oc1nc(-c2ccc(C(F)(F)F)cc2)nc2c1CSCC2 [XAV 939]; conditions: top dose 5 µM; top dose inferred
Protocol: as §1

Row | Cell Line | AUC (Bexarotene) | IC50 (Bexarotene) [µM] | AUC (NPK76-II-72-1) | IC50 (NPK76-II-72-1) [µM] | AUC (Etoposide) | IC50 (Etoposide) [µM] | AUC (YK 4-279) | IC50 (YK 4-279) [µM] | AUC (BMS-345541) | IC50 (BMS-345541) [µM] | AUC (AZD7762) | IC50 (AZD7762) [µM] | AUC (GSK-650394) | IC50 (GSK-650394) [µM] | AUC (XAV 939) | IC50 (XAV 939) [µM]
1 | NCI-H727 (lung carcinoid, adherent) | 0.935 | > 8 | 0.962 | > 10.2 | 0.97 | > 16 | 0.921 | > 10 | 0.809 | > 16 | 0.679 | 0.552 | 0.821 | > 16 | 0.972 | > 5
2 | NCI-H747 (large intestine, adherent) | 0.958 | > 8 | 0.894 | > 10.2 | 0.844 | 15.3 | 0.819 | 7.39 | 0.7 | 4.19 | 0.916 | > 2 | 0.932 | > 16 | 0.924 | > 5
3 | NCI-H810 (large cell lung carcinoma, adherent) | 0.928 | > 8 | 0.648 | 1.62 | 0.585 | 1.69 | 0.706 | 2.31 | 0.874 | 14.4 | 0.862 | 1.6 | 0.9 | > 16 | 0.942 | > 5
4 | NCI-H841 (small cell lung carcinoma, adherent) | 0.967 | > 8 | 0.909 | > 10.2 | 0.871 | 15.2 | 0.691 | 2.14 | 0.875 | 15.9 | 0.79 | 0.898 | 0.985 | > 16 | 0.976 | > 5
5 | NCI-H847 (small cell lung carcinoma, adherent) | 0.982 | > 8 | 0.453 | 0.488 | 0.827 | 7.4 | 0.607 | 1.16 | 0.84 | 8.1 | 0.818 | 0.864 | 0.378 | 0.496 | 0.988 | > 5
6 | NCI-H1092 (small cell lung carcinoma, suspension) | 0.989 | > 8 | 0.847 | 7.63 | 0.96 | > 16 | 0.918 | > 10 | 0.849 | 12.2 | 0.986 | > 2 | 0.984 | > 16 | 0.984 | > 5
7 | NCI-H1155 (large cell lung carcinoma, suspension) | 0.982 | > 8 | 0.909 | 9.8 | 0.874 | – | 0.775 | 3.26 | 0.898 | 13.7 | 0.672 | 0.342 | 0.993 | > 16 | 0.973 | > 5
8 | NCI-H1304 (small cell lung carcinoma, suspension) | 0.988 | > 8 | 0.988 | > 10.2 | 0.629 | 2.35 | 0.985 | > 10 | 0.826 | 10.7 | 0.947 | > 2 | 0.823 | 10.4 | 0.986 | > 5
9 | NCI-H1395 (lung adenocarcinoma, adherent) | 0.969 | > 8 | 0.886 | > 10.2 | 0.961 | > 16 | 0.776 | 5.37 | 0.822 | 13.7 | 0.586 | 0.233 | 0.972 | > 16 | 0.956 | > 5
10 | NCI-H1435 (lung adenocarcinoma, semi-adherent) | 0.942 | > 8 | 0.993 | > 10.2 | 0.861 | 11.2 | 0.991 | > 10 | 0.946 | > 16 | 0.983 | > 2 | 0.965 | > 16 | 0.988 | > 5
11 | NCI-H1436 (small cell lung carcinoma, suspension) | 0.986 | > 8 | 0.696 | 2.48 | 0.968 | > 16 | 0.828 | 7.41 | 0.842 | 13.6 | 0.888 | > 2 | 0.901 | > 16 | 0.974 | > 5
12 | NCI-H1563 (lung adenocarcinoma, adherent) | 0.967 | > 8 | 0.941 | > 10.2 | 0.735 | 5.42 | 0.852 | > 10 | 0.866 | > 16 | 0.695 | 0.495 | 0.973 | > 16 | 0.979 | > 5
13 | NCI-H1568 (lung adenocarcinoma, adherent) | 0.949 | > 8 | 0.982 | > 10.2 | 0.675 | 3.49 | 0.792 | 5.85 | 0.867 | > 16 | 0.716 | 0.601 | 0.912 | > 16 | 0.911 | > 5
14 | NCI-H1581 (large cell lung carcinoma, semi-adherent) | 0.984 | > 8 | 0.785 | 4 | 0.935 | > 16 | 0.612 | 1.24 | 0.896 | > 16 | 0.871 | 1.63 | 0.987 | > 16 | 0.975 | > 5
15 | NCI-H1623 (lung adenocarcinoma, adherent) | 0.969 | > 8 | 0.976 | > 10.2 | 0.794 | 9.24 | 0.94 | > 10 | 0.954 | > 16 | 0.849 | > 2 | 0.981 | > 16 | 0.961 | > 5
16 | NCI-H1648 (lung adenocarcinoma, adherent) | 0.883 | > 8 | 0.854 | 8.86 | 0.847 | 12.9 | 0.663 | 1.83 | 0.856 | 14.2 | 0.894 | > 2 | 0.9 | > 16 | 0.956 | > 5

Row | Cell Line | AUC (Bexarotene) | IC50 (Bexarotene) [µM] | AUC (NPK76-II-72-1) | IC50 (NPK76-II-72-1) [µM] | AUC (Etoposide) | IC50 (Etoposide) [µM] | AUC (YK 4-279) | IC50 (YK 4-279) [µM] | AUC (BMS-345541) | IC50 (BMS-345541) [µM] | AUC (AZD7762) | IC50 (AZD7762) [µM] | AUC (GSK-650394) | IC50 (GSK-650394) [µM] | AUC (XAV 939) | IC50 (XAV 939) [µM]
17 | NCI-H1651 (lung adenocarcinoma, adherent) | 0.901 | > 8 | 0.979 | > 10.2 | 0.805 | 8.87 | 0.752 | 3.56 | 0.98 | > 16 | 0.819 | 1.25 | 0.828 | 10.9 | 0.978 | > 5
18 | NCI-H1666 (lung adenocarcinoma, semi-adherent) | 0.987 | > 8 | 0.976 | > 10.2 | 0.982 | > 16 | 0.846 | 8.39 | 0.911 | > 16 | 0.96 | > 2 | 0.986 | > 16 | 0.869 | > 5
19 | NCI-H1688 (small cell lung carcinoma, adherent) | 0.981 | > 8 | 0.628 | 1.5 | 0.825 | 11 | 0.895 | > 10 | 0.838 | 12.4 | 0.891 | > 2 | 0.98 | > 16 | 0.981 | > 5
20 | NCI-H1693 (lung adenocarcinoma, adherent) | 0.944 | > 8 | 0.977 | > 10.2 | 0.861 | > 16 | 0.915 | > 10 | 0.955 | > 16 | 0.723 | 0.805 | 0.941 | > 16 | 0.851 | > 5
21 | NCI-H1694 (small cell lung carcinoma, suspension) | 0.987 | > 8 | 0.892 | > 10.2 | 0.566 | 1.52 | 0.903 | > 10 | 0.811 | 8.4 | 0.801 | 0.973 | 0.969 | > 16 | 0.984 | > 5
22 | NCI-H1755 (lung adenocarcinoma, adherent) | 0.983 | > 8 | 0.824 | 7.39 | 0.9 | > 16 | 0.766 | 4.27 | 0.929 | > 16 | 0.637 | 0.319 | 0.975 | > 16 | 0.936 | > 5
23 | NCI-H1770 (non-small cell lung carcinoma, suspension) | 0.992 | > 8 | 0.8 | 4.24 | 0.677 | 2.91 | 0.877 | 7.96 | 0.941 | > 16 | 0.991 | > 2 | 0.663 | 2.67 | 0.989 | > 5
24 | NCI-H1781 (lung adenocarcinoma, adherent) | 0.982 | > 8 | 0.989 | > 10.2 | 0.401 | 0.536 | 0.863 | 8.65 | 0.976 | > 16 | 0.753 | 0.669 | 0.861 | 13.5 | 0.974 | > 5
25 | NCI-H1792 (lung adenocarcinoma, adherent) | 0.892 | 7.81 | 0.97 | > 10.2 | 0.883 | 14.2 | 0.687 | 1.96 | 0.818 | 7.88 | 0.83 | 1.09 | 0.879 | 13.7 | 0.953 | > 5
26 | NCI-H1836 (small cell lung carcinoma, suspension) | 0.972 | > 8 | 0.978 | > 10.2 | 0.928 | > 16 | 0.986 | > 10 | 0.883 | > 16 | 0.956 | > 2 | 0.964 | > 16 | 0.986 | > 5
27 | NCI-H1838 (lung adenocarcinoma, adherent) | 0.985 | > 8 | 0.987 | > 10.2 | 0.986 | > 16 | 0.973 | > 10 | 0.949 | > 16 | 0.871 | > 2 | 0.984 | > 16 | 0.97 | > 5
28 | NCI-H1869 (lung squamous cell carcinoma, adherent) | 0.925 | > 8 | 0.963 | > 10.2 | 0.978 | > 16 | 0.859 | > 10 | 0.909 | > 16 | 0.735 | 0.646 | 0.981 | > 16 | 0.961 | > 5
29 | NCI-H1944 (lung adenocarcinoma, adherent) | 0.925 | > 8 | 0.789 | 4.86 | 0.639 | 2.5 | 0.722 | 2.8 | 0.633 | 2.39 | 0.577 | 0.206 | 0.91 | > 16 | 0.93 | > 5
30 | NCI-H1975 (lung adenocarcinoma, adherent) | 0.983 | > 8 | 0.954 | > 10.2 | 0.681 | 3.47 | 0.813 | 6.39 | 0.874 | > 16 | 0.786 | 1 | 0.983 | > 16 | 0.943 | > 5
31 | NCI-H2009 (lung adenocarcinoma, adherent) | 0.964 | > 8 | 0.982 | > 10.2 | 0.467 | 0.811 | 0.823 | 6.31 | 0.953 | > 16 | 0.791 | 0.958 | 0.675 | 3.18 | 0.972 | > 5

From the supplement of paper PMC4967469
